{"source": "the supplement of paper PMC11417369", "note": "Some of the results follow."}
{"test_system": "PfAP2-HC AP2 domain (GST-tagged)", "test": "gcPBM binding intensity (ln(normalized median fluorescence intensity)); higher = stronger DNA binding", "method_in_brief": "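Binding intensity is the highest Masliner-normalised natural-log median intensity over replicate spots in either probe orientation. To obtain it, GST-tagged P. falciparum DNA-binding domains made in E. coli were incubated for 1 h on an Agilent 4 × 180k array of primer-extended double-stranded 36-bp intergenic genomic probes plus negative controls. Detection used Alexa488 anti-GST antibody with scanning at 488 nm.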"}
{"sequence": "TATCTCCACAAAAGATGTACTCATATTAATTTATAA [XGTACX_site3535]", "gcPBM binding intensity (ln)": 9.1}
{"sequence": "GTATACAACATATGAACACACAAAATATTTTTTTTT [CACACA_site2928]", "gcPBM binding intensity (ln)": 9.83}
{"sequence": "TATGAAAAGTAAAGTACACACAGGAAAAAAAAAAAA [CACACA_site1749]", "gcPBM binding intensity (ln)": 9.91}
{"sequence": "TTTGTTATATTTAATACACACATATTATAAACACAT [CACACA_site7703]", "gcPBM binding intensity (ln)": 9.88}
{"sequence": "ATAAATAAAGGACACACACACACACTAATAAAAAAA [CACACA_site8840]", "gcPBM binding intensity (ln)": 11.4}
{"sequence": "TATATAATATATTTATGTACTCACAATGGGGTCTAC [XGTACX_site2691]", "gcPBM binding intensity (ln)": 9.6}
{"sequence": "GGTATACTCAAGTATACACACATATATATATATATA [CACACA_site5746]", "gcPBM binding intensity (ln)": 9.74}
{"sequence": "AAAATATATTAAGGCACACACATACAGATATATATA [CACACA_site5951]", "gcPBM binding intensity (ln)": 11.1}
{"sequence": "TTTTTTCTTTTTTTTTTTTTTTTCTTTTTTTTTTTT [GTGCAC_negctrl_site196]", "gcPBM binding intensity (ln)": 9.32}
{"sequence": "TACATACACAAATACACACACAAATACATACCCAAA [CACACA_site4550]", "gcPBM binding intensity (ln)": 10.3}
{"sequence": "TACGTGAAATTATATACACACATAAATATGGGTGTA [CACACA_site5687]", "gcPBM binding intensity (ln)": 9.67}
{"sequence": "TACATGATAGATCACACACACATATAAATATATATA [CACACA_site5562]", "gcPBM binding intensity (ln)": 10.2}
{"sequence": "TAAAATAACTCACAAAGTACAAAAATAAGCATATGA [XGTACX_site7046]", "gcPBM binding intensity (ln)": 9.79}
{"sequence": "ACATAAGACACAAATACACACAAAAATATATAACAA [CACACA_site4082]", "gcPBM binding intensity (ln)": 10.2}
{"sequence": "AACAATATGGATGTATGTACACATATAGAACGTTAT [XGTACX_site7142]", "gcPBM binding intensity (ln)": 10.2}
{"sequence": "TATGCATTTATGCATTGTACTTTTATAGATTCCACC [XGTACX_site7121]", "gcPBM binding intensity (ln)": 9.33}
{"sequence": "ATATTATATATACACGCACACACACTAATATATATA [CACACA_site9092]", "gcPBM binding intensity (ln)": 10.4}
{"sequence": "GAAATTTTATTACTTTTACACACCTATATATTATTC [CACACA_site9076]", "gcPBM binding intensity (ln)": 9.87}
{"sequence": "TACAAAAAAAAAGAACGTACAAAAAATTTCAAAAAT [XGTACX_site5860]", "gcPBM binding intensity (ln)": 9.73}
{"sequence": "TTAAACTATACCAAAACACACATACAAAATATAAAA [CACACA_site5494]", "gcPBM binding intensity (ln)": 10.2}
{"sequence": "TATGTATATATATTAACACACAAAAAAAAAAAAAAA [CACACA_site1812]", "gcPBM binding intensity (ln)": 9.55}
{"sequence": "ATGAACGGAAAAATATATATAAATATATATATCATG [XGTACX_negctrl_site342]", "gcPBM binding intensity (ln)": 9.86}
{"sequence": "AAAAATTTTCAAGTGTGTACATATTTTCATTTAACA [XGTACX_site6186]", "gcPBM binding intensity (ln)": 9.63}
{"sequence": "AAATATATATTCATGTGTACACACAAAAAAAAATAA [XGTACX_site4552]", "gcPBM binding intensity (ln)": 10.2}
{"sequence": "AAGAAAAAGTATCCTCTATCTTTATATAAACTATTA [TGCATGCA_negctrl_site2]", "gcPBM binding intensity (ln)": 9.57}
{"sequence": "ATGTATATATTTTTATGTACATATTTTTAATTTATA [XGTACX_site2982]", "gcPBM binding intensity (ln)": 9.64}
{"sequence": "CATACATATACTTTGTGTACATATATATATTATATA [XGTACX_site97]", "gcPBM binding intensity (ln)": 9.69}
{"sequence": "TAATAAAAAATTAAAAAAAATAAAAATAAAAATAAA [GTGCAC_negctrl_site78]", "gcPBM binding intensity (ln)": 9.42}
{"sequence": "TTTATACTTTTAAATTGTACTATAAAAAGGAATACA [XGTACX_site2537]", "gcPBM binding intensity (ln)": 9.32}
{"sequence": "TTTTTATTTAGCTAAGCATGCTAACGATGACACTTC [TGCATGCA_site79]", "gcPBM binding intensity (ln)": 9.7}
{"sequence": "GAATATTCAACATAATGTACAAGTATTCATTTCTTT [XGTACX_site7860]", "gcPBM binding intensity (ln)": 9.53}
{"sequence": "CAAAAATAAAAGAAATGTACAAAAAATAATAAAAAA [XGTACX_site6597]", "gcPBM binding intensity (ln)": 9.73}
{"sequence": "TAATAAACTTAAAAATGTACATATATTTATTATTAC [XGTACX_site4321]", "gcPBM binding intensity (ln)": 9.61}
{"sequence": "AAAATTCATAAATACACACACGCACATATATATATA [CACACA_site4227]", "gcPBM binding intensity (ln)": 10.2}
{"sequence": "AAGAAAATGTATATATGTACATACAATCAAAAGAAG [XGTACX_site3454]", "gcPBM binding intensity (ln)": 9.96}
{"sequence": "ATCTGTACAGTTTTTGCACACATATAAATAAAAAAA [CACACA_site9198]", "gcPBM binding intensity (ln)": 9.79}
{"sequence": "TATTTACAAATAAAAAGTACATAAACTAATATCTTT [XGTACX_site2181]", "gcPBM binding intensity (ln)": 9.56}
{"sequence": "TTGTTTGTAAACAGATGTACATATAAAAATATATAT [XGTACX_site3370]", "gcPBM binding intensity (ln)": 9.7}
{"sequence": "TATATTAGAAAGGATACACACATATATAAATATCTA [CACACA_site6411]", "gcPBM binding intensity (ln)": 9.79}
{"sequence": "ATATATATATATATATGTACATATATTTGTAATGTC [XGTACX_site8074]", "gcPBM binding intensity (ln)": 10.2}
{"sequence": "TTTATTATGTAAGCATGTACATGATGTATATATTTA [XGTACX_site5021]", "gcPBM binding intensity (ln)": 9.73}
{"sequence": "CACAGACACGGACACACACACACACCGATATATATA [CACACA_site4353]", "gcPBM binding intensity (ln)": 11.2}
{"sequence": "ATTTTTTAAAATATTTGTACATATATAATGCATATA [XGTACX_site7026]", "gcPBM binding intensity (ln)": 9.49}
{"sequence": "TAAATACTTATATGTACACACATATAGATATATATT [CACACA_site2553]", "gcPBM binding intensity (ln)": 9.81}
